Measured values: PubChem BioAssay (Tox21)
Several values for one entry are separate records, joined by “and”; a condition that tells them apart may be missing. Equal values may be shown once. The inconclusive results got no clear call from the source; some entries with a clear call stand among them for comparison. Potencies beside an inconclusive call are fits to weak or partial responses and may not hold up. Activity calls are given as the source filed them. Calls come from the whole dose curve; as a rule, active = well fitted cell-killing curve with a large enough effect in the repeat runs; inconclusive = weak or mixed curves, or effect the other way; inactive = flat fitted curve, though single readings scatter.

assay: qHTS assay to identify small molecule antagonists of the estrogen receptor alpha (ER-alpha) signaling pathway using the BG1 cell line in the presence of 0.1 nM 17-beta-estradiol - cell viability counter screen (AID 1259241); conditions: VM7Luc4E2 (BG1) viability, CellTiter-Fluor protease, 22 h, 0.1 nM estradiol agonist added; series mostly up to 92.4 µM; note: nearly all actives have a fitted effect of over 40% in size
Description: National Center for Advancing Translational Sciences [NCATS]
NIH Chemical Genomics Center [NCGC]
U.S. Environmental Protection Agency [EPA]
National Institutes of Environmental Health Sciences [NIEHS]
National Toxicology Program [NTP]
U.S. Food and Drug Administration [FDA]
Estrogen receptor (ER), a member of the nuclear hormone receptor plays an important role in development, metabolic homeostasis and reproduction. Two subtypes of ER, ER-alpha and ER-beta, have similar expression patterns with some uniqueness in both types. Endocrine disrupting chemicals (EDCs) and their interactions with steroid hormone receptors like ER causes disruption of normal endocrine function. Therefore, it is important to understand the effect of environmental chemicals in ER signaling pathway. For identifying ER antagonists, VM7Luc4E2 cell line was used to screen against Tox21 compound libraries.
VM7Luc4E2 cell line (provided by Denison MS, University of California) endogenously express full-length ER-alpha and is stably transfected with a plasmid containing four estrogen responsive elements (ERE) upstream of a luciferase reporter gene. The current screening for identification of ER-alpha inhibitors against Tox21 compound libraries used lower concentration (0.1 nM) of 17beta-Estradiol as a stimulator. The cytotoxicity of the Tox21 compound libraries against VM7Luc4E2 cell line was tested by measuring live-cell protease activity using CellTiter-Fluor assay in the same wells.
Tox21 Assay Protocol Summary:
VM7Luc4E2 cells were cultured in phenol red free assay medium containing 10% charcoal stripped FBS for 5 days prior to the assay. The cells were dispensed at 4,000 cells/well in 4 uL of assay medium into white wall/solid-bottom 1536-well plates (Corning Life Sciences, Corning, NY) using a Multidrop Combi (ThermoFisher Scientific, Waltham, MA) dispenser. After the assay plates were incubated at 37C and 5% CO2 for 24 hr, 23 nL of compounds dissolved in DMSO, positive controls or DMSO only was transferred to the assay plates by a Pintool station (Kalypsys, San Diego, CA). The transfer of compounds was followed by the addition of 1 uL of 0.1 nM (final concentration) agonist (17beta-Estradiol)/assay medium using a Flying Reagent Dispenser (FRD, Aurora Discovery, San Diego, CA). The plates were incubated at 37C and 5% CO2 for 22 hr. For cytotoxicity assay, 1 uL of CellTiter-Fluor reagent (Promega Corporation, Madison, WI) was added to each well using the FRD and after 30 min incubation at 37C and 5% CO2, The fluorescence intensity was measured using ViewLux plate reader (PerkinElmer, Shelton, CT).
% is set by controls: 0 for no effect and ±100 for the full control effect; potency is the fitted concentration of half-maximal effect; tags give direction and shape of the fitted curve.

Structure (SMILES)	Potency	activity change, negative = cytotoxicity
O=C1[C@H]2CCCC[C@H]2C(=O)N1CCCCN1CCN(c2nsc3ccccc23)CC1	inconclusive: 26.6 µM [cytotoxic, partial curve]	–
COc1cc(NC(C)CCCN)c2ncccc2c1 (stereo not given)	inconclusive: 37.6 µM [cytotoxic, single point]	–
Nc1ccc(N=Nc2ccc(N)cc2)cc1	inconclusive: 21.7 µM [cytotoxic, partial curve]	–
Cc1cc(C)c(S(=O)(=O)O)cc1N=Nc1cc(S(=O)(=O)O)c2ccccc2c1O	active: 54.5 µM	–
Cc1cc(S(=O)(=O)O)ccc1N=Nc1c(O)ccc2ccccc12	active: 34.4 µM	–
O=S(=O)(O)c1ccc(N=Nc2c(O)ccc3ccccc23)cc1	active: 54.5 µM	–
Fc1ccccc1[C@@H](F)COC1CCC(Nc2ncnc3[nH]ncc23)CC1 (stereo not given in full)	inconclusive: 27.3 µM [cytotoxic, partial curve, poor fit]	–
Nc1ccc(N)c([N+](=O)[O-])c1	inconclusive: 30.6 µM [cytotoxic, partial curve]	–
CN(C)CCCN1c2ccccc2CCc2ccccc21	inconclusive: 68.6 µM [cytotoxic, partial curve, poor fit]	–
CCOC(=O)OC(C)OC(=O)[C@@H]1N2C(=O)[C@@H](NC(=O)[C@H](N)c3ccccc3)[C@H]2SC1(C)C (stereo not given in full)	inconclusive: 13.3 µM [rising, single point]	–
Cc1ccc(Br)cc1	inactive	–
CCCCCCC[N+](CC)(CC)CCCCc1ccc(Cl)cc1	active: 26.6 µM	–
COc1ccc(S(=O)(=O)N2C(=O)[C@@](c3ccccc3OC)(N3C[C@H](O)C[C@H]3C(=O)N(C)C)c3cc(Cl)ccc32)c(OC)c1	inconclusive: 19.3 µM [cytotoxic, partial curve]	–
CCOc1ccc2nc3cc(N)ccc3c(N)c2c1	inconclusive: 26.6 µM	–
CC(=O)Oc1ccc([N+](=O)[O-])cc1CCl	active: 54.5 µM	–
CCOc1ccc(OCC)c(Cl)c1	inactive	–
Cc1cc(Cl)c(C)cc1Cl	inconclusive: 6.86 µM [cytotoxic, single point]	–
Nc1ccc(NCCO)c([N+](=O)[O-])c1	inconclusive: 34.4 µM [cytotoxic, partial curve]	–
CO[C@@H]1[C@@H](OC)[C@H](C)[C@@](O)(CC(=O)O)O[C@H]1[C@H](C)[C@H]1O[C@@]2(CC[C@@](C)([C@H]3CC[C@@](C)([C@@H]4O[C@@H]([C@H]5O[C@](C)(O)[C@H](C)C[C@@H]5C)C[C@@H]4OC4C[C@H](OC)[C@@H](OC)[C@H](C)O4)O3)O2)C[C@H](O)[C@H]1C (stereo not given in full)	active: 3.35 µM	–
Nc1cccc2c(N)cccc12	active: 27.3 µM	–

Structure (SMILES)	Potency	activity change, negative = cytotoxicity
CC(C)NCC(O)c1ccc(O)c(O)c1 (stereo not given)	inconclusive: 67.8 µM [cytotoxic, single point] and inconclusive: 54.5 µM [cytotoxic, partial curve]	–
NS(=O)(=O)c1cc2c(cc1Cl)NC=NS2(=O)=O	inconclusive: 19.4 µM [rising, partial curve, poor fit]	–
COc1nc(C)nc(NC(=O)NS(=O)(=O)c2ccccc2OCCCl)n1	inactive	–
Cc1ccc(S(=O)(=O)C(I)I)cc1	active: 77 µM	–
O=C1C=CC(=O)N1c1cccc(N2C(=O)C=CC2=O)c1	active: 68.6 µM	–
CC(=O)OCC1=C(C(=O)O)N2C(=O)[C@@H](NC(=O)CSc3ccncc3)[C@H]2SC1	inactive	–
O=S1(=O)OC(c2ccc(O)cc2)(c2ccc(O)cc2)c2ccccc21	active: 30.6 µM and active: 21.7 µM and active: 8.41 µM	–
Cc1ccc(C(=O)O)o1	inactive	–
Oc1cccc2c(O)cccc12	active: 68.6 µM	–
Cn1sccc1=O	inconclusive: 68.6 µM [cytotoxic, partial curve, poor fit]	–
Oc1cccc(O)c1O	inconclusive: 60.6 µM [cytotoxic, partial curve]	–
CCC(Cl)CC(Cl)C(Cl)C(Cl)C(Cl)C(C)Cl (stereo not given)	–	inactive: 0.764% [at 19 µM]
CCN(CC)C(=O)/C(C#N)=C/c1cc(O)c(O)c([N+](=O)[O-])c1	inconclusive: 15 µM [cytotoxic, partial curve]	–
CS(=O)(=O)c1ccc([C@@H](C[C@H]2CCC(=O)C2)C(=O)Nc2cnccn2)cc1Cl	inconclusive: 0.243 µM [cytotoxic, single point]	–
O=C(O)c1cc(-c2ccccc2)nc2ccccc12	inconclusive: 6.94 µM [cytotoxic, single point]	–
CC(C)COCC(CN(Cc1ccccc1)c1ccccc1)N1CCCC1 (stereo not given)	inconclusive: 26.6 µM [cytotoxic, single point]	–
COc1cc(NCc2ccc3nc(N)nc(N)c3c2C)cc(OC)c1OC	inconclusive: 11.9 µM [cytotoxic, partial curve]	–
O=C1c2ccccc2C(=O)c2c1ccc(O)c2O	inconclusive: 15 µM [cytotoxic, partial curve]	–
CC(=O)Oc1cccc2c1C(=O)c1c(OC(C)=O)cc(C(=O)O)cc1C2=O	inconclusive: 21.1 µM [cytotoxic, partial curve]	–
Cc1ccc(NC(=O)N(C)C)cc1NC(=O)N(C)C	inactive	–
